This is one part of the list.
system: PF3D7_0420300 AP2 domain 1 (GST-tagged); experiment: gcPBM binding intensity (ln(normalized median fluorescence intensity)); higher = stronger DNA binding
Outline: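 Binding intensity values are the highest Masliner-normalised natural-log median intensity among replicate spots of either probe orientation. The binding step lasted 1 h in 1× PBS with 1% milk, 0.2 mg/ml BSA, 0.5% salmon testes DNA and 0.03% Triton X-100, using GST-tagged P. falciparum DNA-binding domains expressed in E. coli on an Agilent 4 × 180k array of primer-extended double-stranded 36-bp intergenic genomic probes plus negative controls. Alexa488 anti-GST antibody and a 488 nm scan detected bound protein.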

Row | Sequence | gcPBM binding intensity (ln)
1 | TATAATTTTTACTGGGTGCACTCGATATTTTAAATA | 9.15
2 | TAAATGTAAAACGAAATGCACACTATGGAAAATATA [CACACA_site724] | 9.66
3 | AAGACTCTTTGTCCTTGTACATATATTTTTATGTTT [XGTACX_site3711] | 9.4
4 | TTTATATAATATGAATGTACTTATATATTTATAGAC [XGTACX_site3261] | 9.19
5 | TATTTATTCTCCAACACACACACATATATATATATA [CACACA_site2894] | 9.92
6 | AAAATGAATTTAAAATGTACTTTTTCTAAAGAGTAA [XGTACX_site2337] | 8.8
7 | TTATAGGTGCTTCGTAGTACATAAAAATAATATATA [XGTACX_site6979] | 9.05
8 | AGTTTTATATTTCTGAGTACTTATGAATCTAGCTCG [XGTACX_site4330] | 9.15
9 | TTTTTTTTTTTTTTTACACACATTTTAATAATTTTA [CACACA_site1492] | 9.25
10 | ATTTTTTCTAAAAGTTGTACATTAAAACGTGTTCAC [XGTACX_site4803] | 8.91
11 | TTGTAAAAAATTCATACACACGTCTTATTTTTAAGA [CACACA_site8390] | 9.13
12 | AGCAAAAATTAAATAAATAAATATATATATATATAT [TGCATGCA_negctrl_site449] | 9.12
13 | AATGATGTCATAGGGGGTACACATAAATGTGAATGT [XGTACX_site6745] | 9.4
14 | GCAACATTCTAAGACACACACACACCCATATATATA [CACACA_site1053] | 10.1
15 | ATATTAATAATATATACACACATAAGTATTGTATAT [CACACA_site4095] | 9.41
16 | AATAATATATATATATATATATATAGATATGTATAT [GTGCAC_negctrl_site653] | 9.25
17 | GTTTATTCTTTTTATACACACCTTATTTGATTAACA [CACACA_site4567] | 9.69
18 | TATACATAGAAACACACACACATATATATATATATA [CACACA_site2248] | 9.79
19 | TTACTACTATATTATACACACATATATATATATATA [CACACA_site2621] | 9.61
20 | TTCTAATATTTTTGCACACTAAACAATAAATTTCCT [CACACA_site3944] | 9.35
21 | TTTATTTATGTAGATACACACCCATGTTATATGGAG [CACACA_site9144] | 9.15
22 | TTAAAAGAAAAAATATGTACATATATTATATATATC [XGTACX_site7009] | 9.25
23 | TGTGAATAAATAAGCACACATAAACACATATATAAA [CACACA_site6114] | 9.72

Row | Sequence | gcPBM binding intensity (ln)
24 | AATTTTATATATATATGTACATATTTATATGCTTAT [XGTACX_site8180] | 9.4
25 | AATATAAGTGTACATACACACTTTACAATATCATAT [CACACA_site5634] | 9.43
26 | ACATACATACCCCCACGTACGTACCGAAACACCACC [XGTACX_site1982] | 9.84
27 | TTTCTATATCTTTCAACACACAAATTTTTTTTTCCA [CACACA_site108] | 9.28
28 | CAAAGAACTTATAGGGTGCTTTACTTATAAGTAAAT [GTGCAC_site9579] | 9.12
29 | GTGGTTGTAATGGTGGTGCATATTGTATATTATGTT | 9.6
30 | ATGTTAACTAAATGTACACACCTATGTTGATGTAAC [CACACA_site5073] | 9.52
31 | TATATATATAAAATATGTACATAAAATTATTTATTT [XGTACX_site7666] | 9.14
32 | AAAGTTTAAATGAGAAGTACAAATTTTTGTTTTTAT [XGTACX_site1844] | 9.17
33 | ATATAAAGTATGTTAGTGCACTTTTTTTTTTTTTTT [GTGCAC_site9419] | 9.24
34 | GTAATACACATATAATGTACTCATAAATATATTTAT [XGTACX_site4041] | 9.29
35 | TCATAGGAGAACTTTTGTACAGATTTTTCTTTTTTT [XGTACX_site2853] | 9.24
36 | TGTTGTATTTTTACAACACACATTTAATCCATTTAA [CACACA_site1507] | 9.15
37 | CTTATATATTGGGATAGTACTTTTAACTAAATAGAA [XGTACX_site5900] | 9.01
38 | ACTTTACGAATTAAGAGTACTTATTTAAGGAACACT [XGTACX_site7919] | 9.05
39 | TTTTTTTGCTCTTTTTATATATATATATATATATAT [GTGCAC_negctrl_site70] | 9.34
40 | TTTTTATTGAGATACTTATATAATTTTATGAATAAA [XGTACX_negctrl_site311] | 8.66
41 | TTTGAAAAGTTGAAATGTACACATTTACACATATTT [XGTACX_site1641] | 9.16
42 | ATAATTATTCTTATGGTGCACTGAATATACATGTTG [GTGCAC_site9760] | 9.34
43 | CAAAAATATATTTTTTGTACACAAAAAAAAAATAAA [XGTACX_site5229] | 8.97
44 | ATAGCACATTTTTAAGCACACGTTTATTATATATAT [CACACA_site6084] | 9.59
45 | AAAACTATTAAATGTAGTACATAATTATTGAAATAA [XGTACX_site8716] | 9.08
46 | AAATACATATCATGTAGTACATATATATGTAGGTTA [XGTACX_site5392] | 9.4

Row | Sequence | gcPBM binding intensity (ln)
47 | TATATTACTTTGTGTTGTACGGAAATATATATATAT [XGTACX_site4309] | 9.24
48 | AATATTCAATATATATATATATATAATATTAATATA [GTGCAC_negctrl_site571] | 9.05
49 | ATATTTTATTTAATTACACACAATATTGCAATTTGT [CACACA_site669] | 9.64
50 | AAGGATTTTTTATACACACACTAACTAATGTATATA [CACACA_site7163] | 9.57
51 | TAATACCATAACAAGTGTACATAAATAATTATTGTA [XGTACX_site4949] | 9.52
52 | ATCAACATTATGGTTAGTACTTAGTGAATTGTTAAT [XGTACX_site4926] | 9.19
53 | GTGTAATATATTTTTCGTACATATTATATATATATA [XGTACX_site1675] | 9.5
54 | TTATACACCTTTCATTGTACATATAATTTATATTCT [XGTACX_site8685] | 9.39
55 | TCTTCTAATTTACCTACACACAGGAGATATATAAAT [CACACA_site6276] | 9.37
56 | TATATATATATATATTGTACAAAATATTTATATGTT [XGTACX_site436] | 9.18
57 | GTTCATAAATTAAACACACACACACCCCTGGATACC [CACACA_site3331] | 10.2
58 | TAATTAATTTATTAGTTGCACTGTACCATTAGAGTA | 8.98
59 | TTTTTCAGAAAAGAAACACACATATTTATATTTATA [CACACA_site7167] | 9.07
60 | TATATGTATATATATTAACACACAAAAAAAAAAAAA [CACACA_site8534] | 9.4
61 | TAAACAAATAAATAAACACACAATATCTGTATTTAT [CACACA_site5978] | 9.5
62 | TTAAAATAAAGTAGTGGTACAAAAAAAAAAAAAAAA [XGTACX_site6322] | 9
63 | ATTAAATCGATATATACACACATGTTTGGTATATTC [CACACA_site7285] | 9.53
64 | TAACCTATAATATTCACACACATATAAATATTATAG [CACACA_site6592] | 9.46
65 | AGTAATAGTTTGTGCACACTCAAGTATATCATATAT [CACACA_site4034] | 9.62
66 | TTTTACTTAAAACACACACACACAAAAAAAAAAAAA [CACACA_site947] | 9.96
67 | AAAAAAAATATAATATGTACATATCTATATATCAAC [XGTACX_site4881] | 9.38
68 | TATACATATGAAAATACACACATACATACAGATATA [CACACA_site5002] | 9.82
69 | TTGTTTTTAATATCGGTGCAATGGAAAGAAAAGAAG [GTGCAC_site9494] | 9.22

Row | Sequence | gcPBM binding intensity (ln)
70 | AAAAATAATCATTAGGTGCAAAAAATATATATATAT [GTGCAC_site9631] | 9.52
71 | TACGTAAAATAATTGAGTACATAATTATATATATAT [XGTACX_site5361] | 9.29
72 | AGAAAAATTATTTTGCGTACATATTTACAATAAAAA [XGTACX_site2144] | 9.02
73 | AACAAATATATATGTAGTACATGTTGTAGATAATTT [XGTACX_site24] | 9.42
74 | TTTTTTTTTTTAAATTCACACAATATATAAATATTG [CACACA_site5201] | 9.01
75 | TAAAGCATATTATAAACACACACTGTATAAAGATAT [CACACA_site296] | 9.7
76 | GTACATTATTTATATACACACAAAGAAAAATATACA [CACACA_site3452] | 9.69
77 | TTTAAAATATATAGTACACACGTGAACACAAATACA [CACACA_site4392] | 9.54
78 | GAATACATAATAACATGTACACACATTCTTCTATAA [XGTACX_site8725] | 9.49
79 | TATATATATAGAAATGCATGTTAATAAAAGTTATAA [TGCATGCA_site947] | 9.21
80 | TATCATAAAAAATATACACACAAAGGATATTTATAT [CACACA_site6841] | 9.64
81 | TATGAACACCAACACACACACAAAAAAAAAAAAAAA [CACACA_site2013] | 9.61
82 | AGATAAAAAAAGTACACACACACATATATTTATATA [CACACA_site7437] | 10.1
83 | TTTTTTATTTTAAAAACATGCATAAAATATAATAGT [TGCATGCA_site762] | 9.05
84 | TATATATTTAATTTCACACATATATATAATTATTAT [CACACA_site4936] | 9.37
85 | ATATTATATATAAAATGTACATTTAAAAATATTATA [XGTACX_site889] | 9.09
86 | ATACACACTTAAAAAAGTACTTAACTACATGAATTG [XGTACX_site1203] | 9.36
87 | TTTTTTATTTTGTGCACACACATAAAAATATATATA [CACACA_site761] | 9.5
88 | TTTTTTTTTTTTTAAACATGCATAATAAATATAATA [TGCATGCA_site265] | 8.88
89 | TATTTATTTATGGACACACATACAAATCTTCCAGAC [CACACA_site942] | 9.55
90 | TAATCATAACTTGATACGCACACGTTATATAAATAA [CACACA_site1579] | 9.02

Source: the supplement of paper PMC11417369
